# In all, about 110,000 compounds were measured (“z-score”: median about -0.1, highest 2% from about 2 on). Some of the results follow.
# Target: Metabotropic glutamate receptor 8 (Rattus norvegicus) (UniProt P70579)
# Experiment: mGluR8 Gi/Go-coupled signaling modulation – cell-based, rat, thallium flux, HTS, primary screen (AID 488969)
# Settings: HEK293 rat mGluR8, GIRK (G protein-gated inwardly rectifying potassium channel) thallium flux, FluoZin2; at 10 µM; stronger effect = higher value; submaximal glutamate (EC20) added with thallium
# UniProt P70579, sequence (P70579 whole entry, looked up): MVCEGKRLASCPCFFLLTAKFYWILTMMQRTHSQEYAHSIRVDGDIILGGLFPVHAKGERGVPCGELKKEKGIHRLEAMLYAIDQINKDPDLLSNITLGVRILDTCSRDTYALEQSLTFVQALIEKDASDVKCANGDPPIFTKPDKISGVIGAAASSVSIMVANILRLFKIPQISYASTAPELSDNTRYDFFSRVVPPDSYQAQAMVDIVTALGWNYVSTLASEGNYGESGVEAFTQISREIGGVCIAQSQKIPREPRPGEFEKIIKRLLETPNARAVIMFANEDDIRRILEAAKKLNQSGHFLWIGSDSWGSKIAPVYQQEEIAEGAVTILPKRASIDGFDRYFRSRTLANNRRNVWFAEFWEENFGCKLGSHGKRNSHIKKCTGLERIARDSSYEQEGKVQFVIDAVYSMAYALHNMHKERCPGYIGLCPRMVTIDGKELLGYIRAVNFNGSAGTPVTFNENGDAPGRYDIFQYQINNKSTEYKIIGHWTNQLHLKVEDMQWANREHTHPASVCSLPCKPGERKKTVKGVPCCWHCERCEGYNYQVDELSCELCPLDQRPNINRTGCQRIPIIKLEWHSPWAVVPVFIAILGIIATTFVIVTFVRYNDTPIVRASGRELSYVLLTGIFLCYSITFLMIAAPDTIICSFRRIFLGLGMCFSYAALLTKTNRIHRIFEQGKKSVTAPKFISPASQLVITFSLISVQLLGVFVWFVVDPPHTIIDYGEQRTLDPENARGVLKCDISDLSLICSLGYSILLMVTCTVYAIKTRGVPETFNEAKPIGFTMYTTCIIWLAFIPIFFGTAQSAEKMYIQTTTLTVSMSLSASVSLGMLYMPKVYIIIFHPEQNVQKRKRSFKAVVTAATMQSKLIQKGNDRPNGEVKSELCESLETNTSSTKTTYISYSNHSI
row,SMILES,z-score
1,COC(=O)c1ccccc1NC(=O)Nc1ccc(C(=O)N2CCCC2)cc1,0.405
2,CCOC(=O)c1nc2cc3n(c(CC(C)C)c-2c1C)CC(C)=C3C,0.604
3,Cc1cc(SCC(=O)c2cccs2)n2nc(C)c(-c3ccc(Cl)cc3)c2n1,-0.373
4,CCn1cc(C(=O)Nc2sc(C)c(C)c2C(=O)OC)cn1,0.032
5,COc1ccc(OC)c(NC(=O)CCN2CCN(c3ccccc3F)CC2)c1,-0.262
6,C=CCOc1cccc(C2C(C(=O)c3ccco3)=C(O)C(=O)N2Cc2ccncc2)c1 (configuration not stated),-0.882
7,Cc1cccc(NC(=S)NC2CC3CCCC(C2)N3Cc2cccs2)c1C (configuration not stated),-0.0629
8,CC(C)OC(=O)c1cc(NC(=S)Nc2ccc([N+](=O)[O-])cc2)cc(C(=O)OC(C)C)c1,-0.156
9,Cn1c(=O)c2c(nc(SCC(=O)NCc3ccco3)n2C)n(C)c1=O,0.332
10,Cc1nn(Cc2ccccc2Cl)c2sc(C(=O)OC3CCCC3=O)cc12 (configuration not stated),0.555
11,Cc1c(NC(=S)NC(=O)c2ccco2)c(=O)n(-c2ccccc2)n1C,-0.135
12,CCOC(=O)c1c(N)c(C#N)cn1-c1ccccc1,0.195
13,[O-]/[N+](=C\c1ccc(F)cc1)c1ccccc1,0.527
14,O=C1CCC(=O)N1c1ccc(CSc2nnnn2C2CCCCC2)cc1,-0.0111
15,CCC1(CC)NC(=O)N(CC(=O)OCC(=O)Nc2ccc(C(F)(F)F)cc2)C1=O,0.255
16,N#CCSc1nc2c(c(=O)n1Cc1ccccc1)C1(CCCC1)Cc1ccccc1-2,-0.165
17,O=C(Nc1c(Cl)cc(Cl)cc1C(=O)NCc1cccnc1)c1ccc(Cl)cc1Cl,-0.128
18,O=C(Nc1cccc([N+](=O)[O-])c1)c1cnccn1,0.337
19,Cc1ccc(C(=O)/C=C/Nc2ccc3c(c2)OCO3)cc1,-0.0443
20,Cc1ccc(CN2CCC(c3nc4ccc(Cl)cc4[nH]3)CC2)cc1,1.44
21,O=C1OC2CC3CC1CC(O)(C3)C2 (configuration not stated),-0.0418
22,Cc1ccc(Oc2nc(CN3CCOCC3)nc3sc4c(c23)CCC(C)C4)cc1 (configuration not stated),-0.757

row,SMILES,z-score
1,CCOC(=O)C1CCN(Cc2cnc(Oc3ccc(N)cc3)s2)CC1,-0.0165
2,O=C(O)c1cccnc1Oc1ccccc1,0.0142
3,CC(NC(=O)Cn1cnc([N+](=O)[O-])n1)c1ccccc1 (configuration not stated),0.0249
4,O=S(=O)(NCC1OCCc2ccccc21)c1ccc(S(=O)(=O)N2CCOCC2)cc1 (configuration not stated),-0.374
5,CC(C)c1nc(N2CCN(C(=O)c3ccco3)CC2)c2c3c(sc2n1)CCCC3,1.42
6,CCOC(=O)CSC1=C(C#N)C(c2ccc(Cl)cc2)C(C(=O)OC)C(=O)N1 (configuration not stated),1.29
7,C/C(=N\NC(=O)c1[nH]c2c([N+](=O)[O-])cc(C)cc2c1-c1ccccc1)c1cccnc1,0.0489
8,COc1cccc(N2CCN(C3CC(=O)N(c4ccc(Cl)cc4)C3=O)CC2)c1 (configuration not stated),-0.638
9,COc1ccc(/C=N/NC(=O)c2cnccn2)cc1O,-0.0916
10,CCC(Sc1ccccc1C(=O)O)C(=O)O (configuration not stated),-0.394
11,O=C(O)C1C2CCC(O2)C1C(=O)Nc1cnn(Cc2ccccc2)c1 (configuration not stated),-0.0973
12,CCOc1ccccc1C(=O)OCC(=O)Nc1ccc(OC(F)F)cc1,-0.388
13,CCOc1ccc(-c2cc(CCCC(=O)Nc3cc(OC)ccc3OC)no2)cc1,-0.187
14,O=C1CN(C(=O)c2cc([N+](=O)[O-])ccc2Cl)C(c2ccc(F)cc2)c2cc(F)ccc2N1 (configuration not stated),-0.204
15,O=C(c1ccccc1)N1CCN(C(=O)c2ccccc2Br)CC1,-0.0492
16,Cc1ccc(C(=O)OCC(=O)Nc2ccccc2C(F)(F)F)cc1S(=O)(=O)N1CCOCC1,-0.128
17,CCN(CC)CCNC(=O)C1c2ccccc2C(=O)N(CCOC)C1c1ccc(F)cc1 (configuration not stated),-0.0764
18,COc1ccc(N2CCN(Cc3nc(N)nc(Nc4ccc(C)c(Cl)c4)n3)CC2)cc1,-0.0473
19,O=c1cc(C(F)(F)F)[nH]c(=O)n1C1CCCCC1,0.885
20,O=C(Nc1ccc2c(c1)OCO2)c1cccs1,-0.16
21,COc1cc(C2C(C#N)=C(N)Oc3c2ccc2ccccc32)ccc1OCC(=O)Nc1ccccc1C (configuration not stated),-0.124
22,Cc1ccc(-c2nn3c(C)nnc3c3ccccc23)cc1S(=O)(=O)NCCN1CCOCC1,-0.342

row,SMILES,z-score
1,O=C(CC1Sc2ccccc2NC1=O)OC(C(=O)NCCc1ccccc1)c1cccnc1 (configuration not stated),-0.222
2,COc1ccc(S(=O)(=O)N2CCC(C(=O)NCc3ccccn3)CC2)cc1OC,-0.117
3,O=C(O)/C(=C\c1ccccc1Cl)c1ccc(S(=O)(=O)N2CCCCC2)s1,-0.879
4,COc1ccc(S(=O)(=O)N2CCC(C(=O)Nc3cccc(Cl)c3)CC2)cc1OC,-1.49
5,CC(C)(C)c1ccc(/C=C/C(=O)c2ccc(NC3=NCCCS3)cc2)cc1,-0.346
6,CCOCC(=O)Nc1cc(C(=O)Nc2cccc(C)c2C)ccc1Cl,0.603
7,CCCCc1ccc(S(=O)(=O)Nc2cc(C)on2)cc1,0.162
8,CC(C)CCNc1nc2c(c(=O)[nH]c(=O)n2C)n1CC(O)COC(C)C (configuration not stated),0.0126
9,COc1ccc(/C=C/C(=O)NC(=S)NN2CCCCC2c2cccnc2)cc1 (configuration not stated),0.454
10,CCCCN(CCCC)C(=O)/C=C/c1cccc([N+](=O)[O-])c1,-0.191
11,CCN(CC(=O)NCc1ccc(F)cc1)Cc1nc2ccccc2c(=O)[nH]1,1.04
12,Cc1cc2oc(=O)cc(CN3CCC(C)CC3)c2cc1Cl,0.585
13,Nc1nnc(SCCCC(=O)c2ccc(Br)cc2)s1,0.0024
14,Cc1ccc(C2CC(=O)Nc3sc(C(N)=O)c(N)c32)cc1 (configuration not stated),-0.314
15,O=C(NC1CCCCC1)N(CCN1CCCC1)Cc1cc2cc3c(cc2[nH]c1=O)OCCO3,-0.421
16,CS(=O)(=O)N(CC(=O)NCc1ccncc1)Cc1ccc(Cl)cc1,-0.132
17,O=C(NC1CCN(Cc2ccccc2)CC1)c1c(F)cccc1F,-0.283
18,O=C(c1cnn2ccccc12)N1CCN(C2CCCCC2)CC1,0.424
19,CCOc1ccccc1N/C(=C(/C(Cl)=C(Cl)Cl)[N+](=O)[O-])n1cncn1,-1.34
20,O=C(c1c(F)cccc1F)N1CCN(c2ncccn2)CC1,0.0868
21,COc1ccc(CC(=O)N/N=C/c2cccn2-c2ccc([N+](=O)[O-])cc2)cc1OC,-0.892
22,O=C1CCN(C(=O)Nc2ccccc2)N1,-0.103

row,SMILES,z-score
1,CC(C)(C)n1ncc2c(=O)n(CC(=O)c3ccccc3)cnc21,-0.0514
2,COc1ccc(Cl)cc1NC(=O)C1CC(=O)N(c2ccc(F)cc2)C1 (configuration not stated),0.0135
3,O=C(O)C1CCCN1S(=O)(=O)c1ccc2[nH]c(=O)c(=O)[nH]c2c1 (configuration not stated),0.188
4,Cc1ccc(Cl)cc1N1CCN(S(=O)(=O)c2ccc3c(c2)oc(=O)n3C)CC1,-0.0595
5,Cc1noc(C)c1COc1ccc(C(=O)OC(C)C(=O)Nc2ccc(N3CCOCC3)cc2)cc1 (configuration not stated),1.49
6,COc1cc2nc(SCc3ccc(F)cc3)n(Cc3cccs3)c(=N)c2cc1OC,0.054
7,Cn1c(-c2cc3c(C(F)(F)F)nn(C)c3s2)n[nH]c1=S,-0.114
8,COc1ccccc1-n1c(SCC(=O)c2ccc(O)cc2O)nc2cc([N+](=O)[O-])ccc21,0.107
9,COc1cc(CN2CCC(C(=O)N3CCN(c4ccccc4F)CC3)CC2)ccc1O,-1.28
10,CC(=O)c1ccc(NC(=O)COC(=O)c2ccccc2Nc2ccccc2)cc1,0.00446
11,CCCCn1c(C(C)NC(=O)CCC)nc2ccccc21 (configuration not stated),-0.443
12,Cc1cc(-c2nc3c4c5c(sc4[nH]c(=O)n3n2)CCC5)c(C)o1,0.435
13,CCC(=O)N1CCc2cc(S(=O)(=O)CCC(=O)Nc3ccc(F)c(F)c3)ccc21,0.0449
14,Cc1ccc(N2CC(C(N)=O)CC2=O)cc1C (configuration not stated),0.11
15,CCOC(=O)c1ccccc1N/C=C1\CCCCC1=O,0.954
16,O=C1N/C(=N\N=C\c2cccs2)SC1Cc1cccc(Cl)c1Cl (configuration not stated),-0.0827
17,O=C1c2ccccc2S(=O)(=O)N1CC(O)Cn1ccc2ccccc21 (configuration not stated),-0.00873
18,CC1Cc2ccccc2N1C(=O)COC(=O)c1cccnc1Cl (configuration not stated),-0.164
19,CCN(CC)S(=O)(=O)c1ccc(O)c(NC(=O)c2ccc(N3CCOCC3)c([N+](=O)[O-])c2)c1,-0.295
20,COc1ccc(Nc2ncnc3sc(-c4ccccc4)cc23)cc1,-0.272
21,COC(=O)C1CSc2[nH]c(=O)sc2C1c1ccccc1 (configuration not stated),0.00576
22,COC(=O)c1cccc(Cn2c(Cl)c(/C=N/Nc3ccccc3C)sc2=O)c1,-0.0909

row,SMILES,z-score
1,C(=C1/CCCC2=C1Nc1ncnn1C2c1ccccc1)/c1ccccc1 (configuration not stated),0.372
2,CCC(C)NC(=O)CSC1=Nc2ccccc2C2=NC(CCC(=O)NCc3ccco3)C(=O)N12 (configuration not stated),-0.161
3,CC1=CN2C(=NC(=O)CC2(C)C(=O)N(CC(=O)NC2CCCC2)c2ccccc2C)C=C1 (configuration not stated),0.0482
4,Cc1nc(N)sc1-c1nnc(SCC(=O)Nc2nccs2)n1C,-0.154
5,CCCCC(=O)Nc1sc2c(c1-c1nc3ccccc3s1)CCN(C(C)=O)C2,-0.439
6,Cc1noc(NC(=O)c2ccccc2)c1C#N,-0.212
7,Cc1ccc(NC(=O)CCSc2nnnn2-c2ccc3c(c2)OCO3)cc1C,-0.59
8,CS(=O)(=O)NCCC1=CCCCC1,0.209
9,O=C(Nc1ccc(N2CCN(C(=O)c3ccco3)CC2)cc1)c1ccc2c(c1)OCO2,0.192
10,Cc1cc(=O)oc(C)c1C(=O)N1CCCCC1,-0.149
11,CCCCOC(=O)Nc1nnc(CCc2ccccc2)s1,0.00958
12,O=C(COC(=O)Cc1ccccc1[N+](=O)[O-])NCc1ccc(Cl)cc1,-0.213
13,CC(/C=C/c1ccc2c(c1)OCO2)=N\NC(=O)c1cccc([N+](=O)[O-])c1,0.646
14,C1CCN(Cc2nnnn2C2CCCC2)CC1,0.0262
15,CC(Sc1nnc(-c2cccs2)n1-c1ccccc1)C(=O)NCc1ccc2c(c1)OCO2 (configuration not stated),0.443
16,COc1ccc(C2=NN(C(C#N)c3ccc(OC)c(OC)c3)C(c3ccccc3)C2)cc1 (configuration not stated),-0.201
17,Cc1[nH]nc2c1C1(CCC3(CC1)OCCO3)C(C#N)=C(N)O2,-0.155
18,CCOC(=O)c1sc(N(C)C)nc1-c1ccccc1,-0.559
19,COc1ccc(/C=C/C(=O)c2ccccc2)cc1COc1ccc(F)cc1,-0.00338
